Assay results published in PubChem BioAssay AID651820 (National Center for Advancing Translational Sciences (NCATS), 2012).
Where “and” joins values, the source holds several entries; their conditions need not be identical. Identical values can stand only once. About 12,000 (3.5%) of roughly 340,000 compounds were called active. The shares of active, inactive and inconclusive entries below differ from those in the screen. The call rests on the fitted dose curve; in most records, active means well fitted inhibition curve with a large enough effect; inconclusive means small, poorly fitted or top-dose-only effect, or another doubt; inactive means no such curve, though single readings can be large or run the other way. Potencies beside an inconclusive call are fits to weak or partial responses and may not hold up.

Experiment: qHTS Assay for Inhibitors of Hepatitis C Virus (HCV)
Conditions: Huh7.5.1 HCVcc-Cre (HCVcc is cell-culture hepatitis C virus) infection, luciferase reporter, 44 h; activity change, negative = inhibition: at 41.8 µM (top of the series) unless noted
Summary of the method: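 Infectious HCVcc-Cre (~0.5 moi) was added to cells just after compound, with cells seeded 4 h earlier at 1,000 per well. Luciferase activity after 44 h culture reported infection; substrate was incubated 15 min at room temperature before reading.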
On the % scale 0 is the no-effect control and ±100 the full control effect; potency means the concentration at half of the fitted maximal effect; tags describe the fitted curve by direction and shape.

| Structure (SMILES) | Potency | activity change, negative = inhibition |
| --- | --- | --- |
| CCn1c(SCCC#N)nnc1-c1ccncc1 | inconclusive: 3.16 µM [inhibitor, single point] | – |
| CCC(C)(C)n1nnnc1C(c1ccc(OC)c(OC)c1)N1CCN(c2cccc(OC)c2)CC1 (configuration not stated) | inactive | – |
| CCNc1nc(NCC)n2c(SCC(=O)Nc3ccc(Br)cc3F)nnc2n1 | inconclusive: 11.2 µM [inhibitor, partial curve, poor fit] | – |
| COc1ccc(NC(=O)C2CCN(S(C)(=O)=O)CC2)cc1 | – | inactive: -1.22% |
| COC(=O)C1=C(C)Nc2ncnn2C1c1cccnc1 (configuration not stated) | – | inactive: 4.06% |
| Cc1cc(SCC(=O)OC(C)C(=O)N(C)c2ccccc2)nc2ccccc12 (configuration not stated) | inconclusive: 3.55 µM [inhibitor, single point] | – |
| COCCCN1C(=O)c2[nH]nc(-c3ccccc3O)c2C1c1cccc(Cl)c1 (configuration not stated) | inconclusive: 1.41 µM [inhibitor, partial curve, poor fit] | – |
| Cc1c(C(=O)NC2=NCCS2)oc2ccccc12 | inconclusive: 0.501 µM [inhibitor, partial curve, poor fit] | – |
| COc1ccc(-c2cc(C(F)(F)F)n3ncc(C(=O)NCC4CCCO4)c3n2)cc1 (configuration not stated) | – | inactive: 6.14% |
| CC(C(=O)Nc1ccc(S(=O)(=O)N2CCCC2)cc1)N1CCCC(C(N)=O)C1 (configuration not stated) | inconclusive: 35.5 µM [inhibitor, single point] | – |
| CCOc1cc(Br)c(CN2C(=O)NC3(CCCCCC3)C2=O)cc1OCC | – | inactive: 10.3% |
| O=C(C[n+]1cc(Br)cc2ccccc21)c1ccc(Br)cc1 | – | inactive: -29% |
| CC1CCN(CC(C)CNC(=O)c2cc(-c3ccccn3)nc3ccccc23)CC1 (configuration not stated) | inconclusive: 15.8 µM [inhibitor, single point] | – |
| CCOc1cc(/C=N/NC(=O)COc2ccc(Cl)cc2)ccc1OS(=O)(=O)c1ccccc1 | active: 5.01 µM | – |
| Cc1c2ccccc2c(C)c2c1ccc1ccccc12 | active: 10 µM | – |
| Cc1ccc(Cc2nc(-c3cccnc3)no2)cc1 | – | inactive: 1.24% |
| CC(=O)Cc1nsc(NC(=O)c2cn(-c3ccccc3)nc2-c2ccc(Br)cc2)n1 | inconclusive: 3.55 µM [inhibitor, single point] | – |
| CN(C(=O)c1ccc(NC(=O)Cc2cccc(NC(=O)C3CCN(C(=O)C4CCCCC4)CC3)c2)cc1)C1CCCC1 | inconclusive: 5.01 µM [inhibitor, single point] | – |
| CCn1c(=N)n(CC(O)COc2cccc(C)c2)c2ccccc21 (configuration not stated) | inconclusive: 1.78 µM [inhibitor, full curve, poor fit] | – |
| O=C(Nc1ccccc1N1CCOCC1)c1ccc2ccccc2n1 | inconclusive: 3.98 µM [inhibitor, full curve] | – |
| COc1ccc(C(CNC(=O)c2ccc(N3CCCC3=O)cc2)N(C)C)cc1 (configuration not stated) | inconclusive: 22.4 µM [inhibitor, single point] | – |
| Cc1cccc(N2CCN(C(=O)CNC(=O)C3CCCCC3)CC2)c1C | inconclusive: 5.01 µM [inhibitor, partial curve] | – |
| Cc1ccccc1-c1cccc([C@@H]2C[C@H]3[C@H](CON3C)CN2Cc2ccccc2)c1 | – | inactive: -5.53% [at 8.37 µM] |

| Structure (SMILES) | Potency | activity change, negative = inhibition |
| --- | --- | --- |
| C=CCOc1ccn(C)c(=O)n1 | – | inactive: 1.56% |
| CC(=O)N1CSCC1C(=O)NNS(=O)(=O)c1cccc(C(F)(F)F)c1 (configuration not stated) | inconclusive: 0.355 µM [inhibitor, full curve, poor fit] | – |
| COc1cccc(NC(=O)CN(C)C(=O)/C=C/c2cn(-c3ccccc3)nc2-c2ccc(C)cc2)c1 | inconclusive: 31.6 µM [inhibitor, single point] | – |
| CN(C)S(=O)(=O)c1cccc(NC(=O)c2ccc(OC(F)(F)F)cc2)c1 | inconclusive: 25.1 µM [inhibitor, partial curve] | – |
| CCc1ccc(N2CC(C(=O)Nc3cccc(S(=O)(=O)N4CCCC4)c3)CC2=O)cc1 (configuration not stated) | inconclusive: 7.94 µM [inhibitor, partial curve] | – |
| C[C@H](NC(=O)c1nc[nH]c1C(=O)NCc1ccc(CNC(=O)OC(C)(C)C)cc1)c1ccccc1 | active: 7.08 µM | – |
| Cc1ccc(Cn2nc3c(cc2=O)CCc2ccccc2-3)cc1 | active: 14.1 µM | – |
| CCOC(=O)c1c(NC(=O)CC2SC(=NC)N(C)C2=O)sc(C)c1C (configuration not stated) | inconclusive: 2 µM [inhibitor, partial curve] | – |
| CCN(CC)S(=O)(=O)c1ccc(OC(C)C)c(NC(=O)C2=COCCO2)c1 | inconclusive: 2.51 µM [inhibitor, full curve] | – |
| O=C(OCCN1CCOCC1)c1ccc(Cl)cc1Cl | – | inactive: 17% |
| COc1ccc(N2CCC(CNC(=S)Nc3cc(C)ccc3C)C2)cc1 (configuration not stated) | inconclusive: 12.6 µM [inhibitor, partial curve] | – |
| CC1CCCCN1CCCNC(=O)c1ccc2c(=O)n(CCc3ccccc3)c(=O)[nH]c2c1 (configuration not stated) | active: 3.98 µM | – |
| COc1ccc(N2CCN(C(=O)c3ccc(CNS(=O)(=O)c4cccc(OC)c4)cc3)CC2)cc1 | active: 3.55 µM | – |
| CCOC(=O)c1c(/N=C/N(C)C)sc2c1CCC2 | inconclusive: 17.8 µM [inhibitor, partial curve, poor fit] | – |
| Cc1ccc(C(C(=O)NC(C)(C)C)N(Cc2ccco2)C(=O)Cn2nnc(-c3cccs3)n2)cc1 (configuration not stated) | inconclusive: 5.01 µM [inhibitor, full curve] | – |
| CCOC(=O)C1=C(O)C(=O)N(c2ccccc2)C1c1cccc([N+](=O)[O-])c1 (configuration not stated) | – | inactive: 9.39% |
| Cc1c(CC(=O)NCC(C)C)c(=O)oc2cc3c(cc12)CCC(C)(C)O3 | inconclusive: 2.82 µM [inhibitor, single point] | – |
| Cc1ccc(C(=O)Nc2cc(C(C)C)c(O)c(C(C)C)c2)cc1 | inconclusive: 7.08 µM [inhibitor, partial curve] | – |
| COc1ccc(/C=N/NC(=O)c2cccc(Br)c2)cc1CSc1ccccn1 | inconclusive: 31.6 µM [inhibitor, single point] | – |
| COc1ccccc1Oc1ccc(-c2cnc3ccccc3n2)cc1[N+](=O)[O-] | inconclusive: 25.1 µM [inhibitor, single point] | – |
| Cc1ccccc1N(CC(=O)N/N=C/c1ccc(N(C)C)cc1)C(=O)c1ccccc1 | inconclusive: 11.2 µM [inhibitor, partial curve] | – |
| O=C(N/N=C/c1cc(Cl)ccc1O)c1cccnc1 | active: 5.01 µM | – |
| CCn1ncc(CN2CCN(C(=O)Nc3ccccc3C(=O)OC)CC2)c1C | inconclusive: 31.6 µM [inhibitor, single point] | – |

| Structure (SMILES) | Potency | activity change, negative = inhibition |
| --- | --- | --- |
| COc1cccc(NC(=O)CN(C)C(=O)c2ccc(OCc3ccccc3)c(OC)c2)c1 | – | inactive: -34.7% |
| CCOC(=O)N1CCN(C(=O)CN(Cc2ccc(Cl)cc2)S(=O)(=O)c2ccccc2)CC1 | – | inactive: -2.84% |
| CCCN1CCC(=O)N(CCOc2ccccc2)CC1 | – | inactive: 22.1% |
| O=C(CSc1n[nH]c(-c2ccco2)n1)Nc1sc2c(c1C(=O)Nc1ccccc1)CCCC2 | inconclusive: 11.2 µM [inhibitor, single point] and inconclusive: 28.2 µM [inhibitor, single point] | – |
| CCCn1nnnc1SCC(=O)Nc1cccc(NC(=O)c2ccco2)c1 | inconclusive: 31.6 µM [inhibitor, single point] | – |
| COc1ccc(OC)c(CN2CCN(C(=O)[C@@H](NC(=O)c3cccc(C)c3)C(C)C)CC2)c1 | inconclusive: 8.91 µM [inhibitor, partial curve] | – |
| CCOc1ccc(OCC)c(NC(=O)CN2CCN(CC(=O)NC(C)C)CC2)c1 | – | inactive: -18.1% |
| O=[N+]([O-])c1ccc(NCc2ccc(Cl)cc2)c2ccncc12 | active: 6.31 µM | – |
| COc1ccc(C(=O)NC(=S)NNC(=O)[C@H]2C[C@@H]2c2ccccc2)cc1OC | inconclusive: 0.316 µM [inhibitor, full curve, poor fit] | – |
| COc1ccc(C(=O)NC2CCCc3ccccc32)cc1[N+](=O)[O-] (configuration not stated) | inconclusive: 10 µM [inhibitor, partial curve] | – |
| FC(F)(F)c1cc(-c2ccccc2)nc(N2CCCCCC2)n1 | – | inactive: 4.1% |
| COc1ccc(OCC(=O)NC(=S)Nc2ccc(N3CCOCC3)c(Cl)c2)cc1 | – | inactive: -5.03% |
| Cc1ccccc1-c1nc(CN2CCC(C(=O)NCCCN3CCCC3)CC2)c(C)o1 | active: 14.1 µM | – |
| Cc1ccc2[nH]c(C)c(/C=C/c3cc[n+](C)cc3)c2c1 | inconclusive: 2.24 µM [inhibitor, partial curve] | – |
| Cc1cc(Nc2ccccc2)c2c([N+](=O)[O-])ccc(C)c2n1 | inconclusive: 10 µM [inhibitor, partial curve] | – |
| S=C(Nc1ccc(Cl)cc1Cl)Nc1ccccc1Oc1ccccc1 | inconclusive: 31.6 µM [inhibitor, single point] | – |
| CCN(CC)C(=O)[C@H]1C[C@H](CC(=O)NCCN2CCOCC2)C(=O)N2CCc3c([nH]c4cc(-c5ccco5)ccc34)[C@]12C | inconclusive: 22.4 µM [inhibitor, single point] | – |
| C=CCn1c(SCC(=O)Nc2cc(C)c(Cl)cc2OC)nnc1-c1ccco1 | inconclusive: 10 µM [inhibitor, partial curve, poor fit] | – |
| O=C1N[C@H](Cc2ccccc2)COC(=O)[C@H](Cc2ccc(F)cc2)CC/C=C/C[C@H]1CC(=O)N(CCO)Cc1ccccc1 | inconclusive: 11.2 µM [inhibitor, partial curve] | – |
| CCOC(=O)c1ccc(S(=O)(=O)N2CCN(C3CCCC3)CC2)cc1 | inconclusive: 10 µM [inhibitor, partial curve] | – |
| CC1CC(C)CN(CCOCCSc2ccccc2)C1 (configuration not stated) | inconclusive: 31.6 µM [inhibitor, single point] | – |
